Measured values taken from PubChem BioAssay AID651820 (National Center for Advancing Translational Sciences (NCATS), 2012).
“And” between values parts separate entries of the source, which are not always exact repeats. Equal entries are not always repeated. Among all 340,000 compounds or so, about 12,000 (3.5%) were called active. The shares of active, inactive and inconclusive entries below differ from those in the screen. The call rests on the fitted dose curve; in most records, active means well fitted inhibition curve with a large enough effect; inconclusive means small, poorly fitted or top-dose-only effect, or another doubt; inactive means no such curve, though single readings can be large or run the other way. Potencies of inconclusive entries are doubtful fits and often do not repeat.
On the % scale 0 is the no-effect control and ±100 the full control effect; potency means the concentration at half of the fitted maximal effect; tags describe the fitted curve by direction and shape.

Assay: qHTS Assay for Inhibitors of Hepatitis C Virus (HCV)
Conditions: Huh7.5.1 HCVcc-Cre (HCVcc is cell-culture hepatitis C virus) infection, luciferase reporter, 44 h; activity change, negative = inhibition: at 41.8 µM (top of the series) unless noted
Method in brief: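 Luciferase read-out (15 sec integration) after a 15 min room-temperature substrate step quantifies HCVcc-Cre infection. Cells, 1,000 per well, had compound added 4 h post-plating, then virus at ~0.5 moi, and were cultured 44 h.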
In the case of `COc1ccc(CC(=O)Nc2ccc(-c3cn4ccc(C)cc4n3)cc2)cc1`, the Potency is reported as inconclusive: 12.6 µM [inhibitor, single point].
For `CC(=O)c1sc(-c2ccccc2)cc1N`, the Potency was active: 8.91 µM.
With `COc1cccc(-c2c(-c3cc(OC)cc(OC)c3)n(C)c3ccc(-c4ccc5[nH]ccc5c4)cc23)c1` the Potency was inconclusive: 10 µM [inhibitor, partial curve].
For `O=C(NNC(=O)c1ccc2ccccc2n1)c1ccc(O)cc1`, the Potency was inconclusive: 22.4 µM [inhibitor, single point].
In the case of `NC1=CC(=O)C(=O)c2ccccc21`, the Potency is reported as inconclusive: 31.6 µM [inhibitor, single point].
For `COc1ccc(CN2C(=O)C(Cc3ccccc3)Nc3ncnc(N4CCN(c5ccccc5)CC4)c32)cc1` (configuration not stated), the Potency was active: 3.16 µM.
With `CCC(C)(C)C1CCc2[nH]nc(C(=O)N/N=C(\C)c3ccco3)c2C1` (configuration not stated) the Potency was inconclusive: 1.26 µM [inhibitor, full curve].
In the case of `CC(=O)c1cc(NC(=O)c2ccc([N+](=O)[O-])cc2)c(=O)oc1C`, the “activity change, negative = inhibition” value is reported as inactive: 9.97%.
For `Cc1cc(=O)n(CCc2ccccc2)c(O)c1C#N`, the “activity change, negative = inhibition” value was inactive: -8.56%.
In the case of `Cc1cc(C)n(-c2nc(NCCN(C)C)c3c4c(sc3n2)COC(C)(C)C4)n1`, the Potency is reported as inconclusive: 5.62 µM [inhibitor, single point].
In the case of `O=C(Nc1ncc(S(=O)(=O)c2ccc([N+](=O)[O-])cc2)s1)c1ccccc1F`, the “activity change, negative = inhibition” value is reported as inactive: -16.9%.
With `O=C(NCCC(c1ccccc1)c1ccccc1)c1cccs1` the Potency was inconclusive: 14.1 µM [inhibitor, single point].
For `CCOc1ccc(-n2cc(C(=O)NCc3ccco3)c3cc(OC)c(OC)cc3c2=O)cc1`, the Potency was inconclusive: 22.4 µM [inhibitor, single point].
For `COc1ccc(CCC(=O)NNC(=O)c2cccs2)cc1`, the “activity change, negative = inhibition” value was inactive: 19.4%.
In the case of `CCOc1ccccc1OCC(=O)Nc1nc2ccccc2[nH]1`, the “activity change, negative = inhibition” value is reported as inactive: 20.3%.
With `CSc1cc(-c2ccccc2)n(C)c(=O)c1C#N` the Potency was active: 10 µM.
With `COc1cc(C#Cc2c(-c3cncn3C)n(C)c3ccc(-c4cnc(N5CCOCC5)nc4)cc23)cc(OC)c1` the “activity change, negative = inhibition” value was inactive: 14.6%.
In the case of `COc1cccc(CNC(=O)Cn2cccc2C(=O)c2ccccc2C)c1`, the “activity change, negative = inhibition” value is reported as inactive: 1%.
For `O=C(N/N=C/c1c(O)ccc2ccccc12)c1ccc(Br)o1`, the Potency was active: 3.55 µM.
For `CCC(NC(=O)CNC(=O)c1ccc2c(c1)OCO2)c1ccc(Br)cc1` (configuration not stated), the Potency was inconclusive: 31.6 µM [inhibitor, single point].
For `COc1ccc(/C=N/NC(=O)c2nc(Cl)c(Cl)c(N)c2Cl)cc1COc1ccccc1F`, the Potency was inconclusive: 11.2 µM [inhibitor, single point].
In the case of `COc1ccc(S(=O)(=O)NCCc2ccccn2)cc1`, the “activity change, negative = inhibition” value is reported as inactive: -3.68%.
With `COc1cccc(-c2ccc(NC(=O)C3CCCN(Cc4cnn(C)c4C)C3)cc2)c1` (configuration not stated) the Potency was inconclusive: 22.4 µM [inhibitor, single point].
In the case of `COc1ccccc1NS(=O)(=O)c1cccc(NC(=O)Nc2ccc(Cl)cc2)c1`, the Potency is reported as inconclusive: 11.2 µM [inhibitor, partial curve].
For `O=c1c2c3c(sc2nc2n1CCC2)CCCCC3`, the Potency was inconclusive: 5.01 µM [inhibitor, full curve, poor fit].
For `COc1ccccc1CCC(=O)NNC(=O)c1ccncc1`, the “activity change, negative = inhibition” value was inactive: 0.729%.
In the case of `Cc1cccc(Cn2c(=O)c3c(nc4n3CCN4Cc3ccco3)n(C)c2=O)c1`, the Potency is reported as inconclusive: 5.62 µM [inhibitor, single point].
In the case of `CN(CCOc1ccc(Cl)cc1)C(=O)CNS(=O)(=O)c1ccc(N(C)C)c([N+](=O)[O-])c1`, the Potency is reported as inconclusive: 22.4 µM [inhibitor, single point].
With `CC1(C)Cc2ccccc2/C(=C/C(=O)N2CCCCCC2)N1` the Potency was inconclusive: 2.51 µM [inhibitor, full curve].
In the case of `Cc1ccc(C(=O)N2CCN(Cc3ccc4c(c3)OCO4)CC2)o1`, the “activity change, negative = inhibition” value is reported as inactive: 1.81%.
With `C=C1CCN([C@@H](C)C(=O)NCc2cc(OC)c(OC)c(OC)c2)S(=O)(=O)c2ccccc21` the Potency was inconclusive: 5.01 µM [inhibitor, single point].
In the case of `Cc1occc1-c1nnc(SCC(=O)N2CCN(c3ccccc3)CC2)n1C`, the “activity change, negative = inhibition” value is reported as inactive: 6.17%.
For `O=S(=O)(c1ccc(Br)cc1)N1CCCc2ccccc21`, the Potency was inconclusive: 14.1 µM [inhibitor, single point].
For `Cc1nn(-c2ccccc2)c(Cl)c1C(=O)NCC(C)c1ccccc1` (configuration not stated), the “activity change, negative = inhibition” value was inactive: -10.6%.
In the case of `COc1ccc(Nc2ncnc3ccccc23)c(OC)c1`, the Potency is reported as inconclusive: 12.6 µM [inhibitor, partial curve].
With `CSCCC(=O)N(C)CC1CCN(CCc2cccc(C(F)(F)F)c2)CC1` the “activity change, negative = inhibition” value was inactive: -20.5%.
With `O=C(C1CCN(S(=O)(=O)c2cccc3cccnc23)CC1)N1CCN(c2ccc(Cl)cc2)CC1` the Potency was active: 11.2 µM.
For `CCCC/C(O)=C1\C(=O)CC(C)(C)CC1=Nc1ccccc1OC`, the Potency was inconclusive: 10 µM [inhibitor, partial curve].
For `COc1cccc(/C=N/n2nnnc2N)c1OCC#N`, the “activity change, negative = inhibition” value was inactive: -16.3%.
In the case of `O=C(O)CN1C(=O)c2ccc(C(=O)c3ccccc3)cc2C1=O`, the “activity change, negative = inhibition” value is reported as inactive: 12.2%.
With `CC(C)N(C(=O)CSc1nc2ccccc2n1Cc1ccc(F)cc1)C(C)C` the Potency was inconclusive: 14.1 µM [inhibitor, single point].
With `O=C(CN(Cc1ccco1)Cc1ccco1)Nc1cc(S(=O)(=O)N2CCCCC2)ccc1Cl` the Potency was active: 10 µM.
For `COc1ccc(Cn2nnnc2C(c2cccs2)N2CCCCCC2)cc1` (configuration not stated), the Potency was inconclusive: 31.6 µM [inhibitor, single point].
In the case of `O=C(Nc1ccc(F)c(F)c1)c1ccccc1-c1ccccc1`, the “activity change, negative = inhibition” value is reported as inactive: -2.05%.
In the case of `CN(C)c1nc(/C=C(\C#N)C(N)=O)c(Cl)n1-c1ccc(F)cc1`, the “activity change, negative = inhibition” value is reported as inactive: -6.55%.
With `O=C(Nc1ccc2nc(-c3cccnc3)[nH]c2c1)c1ccccc1F` the Potency was inconclusive: 22.4 µM [inhibitor, single point].
In the case of `COc1ccc(C(CCNCc2ccc(N(C)C)cc2)c2ccccc2)cc1` (configuration not stated), the Potency is reported as inconclusive: 31.6 µM [inhibitor, single point].
In the case of `Cc1ccc(NC(=O)CN(C)C(=O)c2cccc(-n3cccc3)c2)cc1`, the “activity change, negative = inhibition” value is reported as inactive: -25.6%.
With `COc1cccc(NC(=O)CN(C)C(=O)CSCc2nc3scc(-c4cccs4)c3c(=O)[nH]2)c1` the Potency was inconclusive: 2.24 µM [inhibitor, full curve, poor fit].
For `CCOC(=O)c1nn(-c2ccccc2)c(=O)c2c(N)scc12`, the “activity change, negative = inhibition” value was inactive: -15.6%.
In the case of `CCc1cccc(C)c1NC(=S)NCc1ccc2[nH]c(C)cc2c1`, the Potency is reported as inconclusive: 31.6 µM [inhibitor, single point].
In the case of `O=C1c2ccccc2C(=O)c2c1oc(C(F)(F)F)c2C(=O)c1ccccc1`, the Potency is reported as active: 22.4 µM.
For `CC1CN(S(=O)(=O)c2cc(C(=O)NCCC3=CCCCC3)ccc2Cl)CC(C)O1` (configuration not stated), the Potency was inconclusive: 4.47 µM [inhibitor, full curve].
In the case of `COc1ccccc1C(=O)Nc1ccnn1C1CCN(Cc2cc(C)c(C)cc2C)CC1`, the Potency is reported as inconclusive: 22.4 µM [inhibitor, single point].
For `O=C(Nc1ccc(N2CCOCC2)c(Cl)c1)c1ccccc1Cl`, the Potency was inconclusive: 2.82 µM [inhibitor, full curve].
In the case of `CCOC(=O)c1c(NC(=O)CSc2nnc(C)s2)sc2c1CCN(C)C2`, the Potency is reported as inconclusive: 7.08 µM [inhibitor, partial curve].
For `COC(=O)c1c(NC(=O)CSc2nnnn2-c2ccc3c(c2)OCO3)sc(C)c1C`, the Potency was inconclusive: 31.6 µM [inhibitor, single point].
In the case of `COc1cnc(N(C)C)nc1Sc1cccc(Cl)c1`, the Potency is reported as inconclusive: 10 µM [inhibitor, partial curve].
With `COc1ccc(CC(=O)Nc2ccccc2C(C)=O)cc1S(=O)(=O)N1CCOCC1` the “activity change, negative = inhibition” value was inactive: 18.1%.
With `CCOC(=O)c1cc(CC)sc1NC(=O)c1ccc(N2C(=O)CCC2=O)cc1` the Potency was inconclusive: 0.316 µM [inhibitor, full curve, poor fit].
With `Cc1cc(N2CCN(C)CC2)nc2ccc(NC(=O)c3ccc(Br)o3)cc12` the Potency was inconclusive: 20 µM [inhibitor, partial curve, poor fit].
With `CCOC(=O)c1ccc(NC(=O)CN2C(=O)NC3(CCC(C)CC3)C2=O)cc1` (configuration not stated) the “activity change, negative = inhibition” value was inactive: -26.5%.
For `CN(CC(=O)Nc1ccc(Cl)cc1)CC(=O)Nc1cc(Cl)ccc1C#N`, the Potency was inconclusive: 22.4 µM [inhibitor, single point].
For `COc1ccc(/C=C2/SC(=S)N(CC(=O)O)C2=O)cc1OCc1ccc(Cl)cc1`, the “activity change, negative = inhibition” value was inactive: -0.0785%.
For `O=C1C(Cc2c[nH]c3ccccc23)NC(=S)N1Cc1ccccc1` (configuration not stated), the “activity change, negative = inhibition” value was inactive: 7.27%.
For `CC1=C(C(=O)Nc2ccccc2)C(c2ccc(C)o2)n2c(s/c(=C\c3ccco3)c2=O)=N1` (configuration not stated), the Potency was inconclusive: 25.1 µM [inhibitor, single point] and inconclusive: 31.6 µM [inhibitor, single point].
For `Cc1ccc(C)c(Cn2cnc3c(oc4ccccc43)c2=O)c1`, the Potency was inconclusive: 25.1 µM [inhibitor, single point].
In the case of `COCCC(=O)N1CCC(Oc2ccc(C(=O)NCCn3cccn3)cc2)CC1`, the “activity change, negative = inhibition” value is reported as inactive: 27%.
With `O=C(NCc1ccc2c(c1)OCO2)c1nc(Cn2ccc([N+](=O)[O-])n2)no1` the Potency was inconclusive: 31.6 µM [inhibitor, single point].
In the case of `C#CCOCCOCCOCCNc1nc(N2CCN(C(=O)Cn3cc(CCO)nn3)CC2)nc(N2CCN(C(=O)Cn3cc(CCO)nn3)CC2)n1`, the “activity change, negative = inhibition” value is reported as inactive: 8.1%.
For `CC(CNC(=O)c1cc(COc2ccc3ncccc3c2)on1)c1ccccc1` (configuration not stated), the Potency was inconclusive: 5.62 µM [inhibitor, partial curve].
In the case of `CCCc1ccc2oc(C(=O)NCCN3CCCC(O)C3)c(C)c2c1` (configuration not stated), the Potency is reported as inconclusive: 22.4 µM [inhibitor, single point].
